Reference: the supplement of paper PMC4604168 (melanoma cell lines)
The list shows a part of the results. Many values rest on one well or one pass, so single values are uncertain.

Test system: SkMel30
Experiment: cell count relative to DMSO control; melanoma cells; higher = more viable cells
Conditions: library dose: standard library concentration; 72 h
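Further: cells treated in 1,536-well plates, then fixed and DAPI-stained, with nuclei counted from automated high-throughput microscope images.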

Row | SMILES | cell count
1 | CS(=O)(=O)c1ccc(C(=O)Nc2ccc(Cl)c(-c3ccccn3)c2)c(Cl)c1 [vismodegib] + C[C@@H](Oc1cc(-c2cnn(C3CCNCC3)c2)cnc1N)c1c(Cl)ccc(F)c1Cl [Crizotinib] (first compound 5 µM, partner dose 1 µM) | 77.9%
2 | C=C(c1ccc(C(=O)O)cc1)c1cc2c(cc1C)C(C)(C)CCC2(C)C [Bexarotene] + CC1(C)NC(=O)N(c2ccc([N+](=O)[O-])c(C(F)(F)F)c2)C1=O [nilutamide] (first compound 10 µM, partner dose 5 µM) | 100%
3 | NC1(c2ccc(-c3nc4ccn5c(=O)[nH]nc5c4cc3-c3ccccc3)cc2)CCC1 + C[C@@H]1CCN(C(=O)CC#N)C[C@@H]1N(C)c1ncnc2[nH]ccc12 [CP690550] (first compound 2 µM, partner dose 5 µM) | 83.2%
4 | CN(c1ncccc1CNc1nc(Nc2ccc3c(c2)CC(=O)N3)ncc1C(F)(F)F)S(C)(=O)=O + CC(=O)c1c(C)c2cnc(Nc3ccc(N4CCNCC4)cn3)nc2n(C2CCCC2)c1=O [palbociclib] (first compound 0.4 µM, partner dose 0.2 µM) | 56.7%
5 | C=C(c1ccc(C(=O)O)cc1)c1cc2c(cc1C)C(C)(C)CCC2(C)C [Bexarotene] + CN(C)S(=O)(=O)c1ccc2c(c1)/C(=C/c1cc3c([nH]1)CCCC3)C(=O)N2 [SU6656] (first compound 10 µM, partner dose 2 µM) | 120%
6 | CCCS(=O)(=O)Nc1ccc(F)c(C(=O)c2c[nH]c3ncc(Cl)cc23)c1F + O=C(O)c1ccc(-c2c[nH]c3ncc(-c4ccccc4)cc23)cc1C1CCCC1 [GSK650394] (first compound 0.4 µM, partner dose 0.8 µM) | 97.5%
7 | CS(=O)(=O)c1ccc(C(=O)Nc2ccc(Cl)c(-c3ccccn3)c2)c(Cl)c1 [vismodegib] + CCCS(=O)(=O)Nc1ccc(F)c(C(=O)c2c[nH]c3ncc(Cl)cc23)c1F [PLX4720] (first compound 5 µM, partner dose 0.4 µM) | 95.5%
